In all, about 390,000 compounds went through this assay and about 17,000 (4.4%) were called active. Inconclusive means that the source gave no clear call. Such entries were picked first, then a sample of the others. Calls follow the shape of the dose curve; as a rule, active = well fitted inhibition curve with a large enough effect; inconclusive = small, poorly fitted or top-dose-only effect; inactive = no such curve, though single readings can be large or run the other way. Potencies beside an inconclusive call are fits to weak or partial responses and may not hold up.
Each compound was assayed against Lysine-specific demethylase 4A (Homo sapiens) (UniProt O75164) (assay: qHTS Assay for Inhibitors of JMJD2A-Tudor Domain). Details: AlphaScreen JMJD2A-Tudor / H3K4me3 peptide binding; series mostly up to 114 µM.
Also: nearly all actives have a fitted effect of over 50% in size.
Potency is read from the fitted curve at half-maximal effect; tags tell the direction and shape of the fitted curve.

Chain of UniProt O75164 (O75164 whole entry, looked up, the tested form may be a part): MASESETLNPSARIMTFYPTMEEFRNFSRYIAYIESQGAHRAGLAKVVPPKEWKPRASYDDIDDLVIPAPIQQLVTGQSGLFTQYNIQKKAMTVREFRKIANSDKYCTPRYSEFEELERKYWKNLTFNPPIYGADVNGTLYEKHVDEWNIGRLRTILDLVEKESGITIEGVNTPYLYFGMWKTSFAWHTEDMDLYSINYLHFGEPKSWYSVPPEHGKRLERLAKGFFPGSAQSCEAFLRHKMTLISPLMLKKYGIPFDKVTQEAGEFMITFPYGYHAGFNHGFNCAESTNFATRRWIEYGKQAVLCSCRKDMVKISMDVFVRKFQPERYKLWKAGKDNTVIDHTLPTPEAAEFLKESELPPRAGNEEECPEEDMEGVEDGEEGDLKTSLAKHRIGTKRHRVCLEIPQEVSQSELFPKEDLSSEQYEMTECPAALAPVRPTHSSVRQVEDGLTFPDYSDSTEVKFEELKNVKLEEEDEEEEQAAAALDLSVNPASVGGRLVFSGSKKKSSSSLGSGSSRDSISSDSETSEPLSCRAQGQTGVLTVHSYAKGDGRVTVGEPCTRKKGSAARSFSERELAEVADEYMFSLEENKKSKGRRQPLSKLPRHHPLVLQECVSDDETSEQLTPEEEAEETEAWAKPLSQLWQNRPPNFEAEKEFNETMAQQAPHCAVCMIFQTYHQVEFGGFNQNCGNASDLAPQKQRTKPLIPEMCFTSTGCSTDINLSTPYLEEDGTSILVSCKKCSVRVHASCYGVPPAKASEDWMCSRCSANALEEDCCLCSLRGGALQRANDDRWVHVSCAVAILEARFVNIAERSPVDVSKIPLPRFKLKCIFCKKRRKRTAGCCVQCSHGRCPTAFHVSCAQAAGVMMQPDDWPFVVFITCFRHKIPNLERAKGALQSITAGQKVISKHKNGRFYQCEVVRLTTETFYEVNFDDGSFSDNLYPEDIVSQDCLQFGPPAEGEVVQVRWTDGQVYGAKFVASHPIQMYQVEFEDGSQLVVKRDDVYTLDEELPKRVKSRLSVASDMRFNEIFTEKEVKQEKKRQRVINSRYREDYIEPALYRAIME

SMILES	Potency
O=C(c1ccccc1)c1nc[nH]c1C(=O)Nc1ccccc1	inconclusive: 89.1 µM [inhibitor, single point]
COc1cc([N+](=O)[O-])c2nccnc2c1	inconclusive: 100 µM [inhibitor, single point]
Cc1c(C(=O)O)[nH]c2c1C(=O)CC(c1ccccc1)C2 (centres undefined)	inconclusive: 89.1 µM [inhibitor, single point]
O=C(NC(=S)Nc1cc([N+](=O)[O-])ccc1O)c1cccnc1	inactive
CCCCCC(O)(c1ccccc1)C(CN1CCOCC1)c1ccccc1 (centres undefined)	inactive
CC(Sc1cccc[n+]1[O-])C(=O)Nc1ccc(Oc2ccccc2)cc1 (centres undefined)	inactive
N#C/C(=C(/O)c1ccccc1F)c1nc2cc(C(F)(F)F)ccc2s1	inconclusive: 56.2 µM [inhibitor, partial curve]
CCCNc1ncccc1C(N)=O	inactive
O=C(CCCc1c[nH]c2ccccc12)NCCc1c[nH]c2ccccc12	inconclusive: 28.2 µM [inhibitor, full curve]
CCc1ccc(NC(=O)CSc2nnc(Cc3cccn3C)n2-c2ccc(OC)cc2)cc1	inconclusive: 63.1 µM [inhibitor, partial curve, poor fit]
O=C(NC(NC(=S)Nc1c(Cl)cccc1Cl)C(Cl)(Cl)Cl)c1cccc([N+](=O)[O-])c1 (centres undefined)	inconclusive: 20 µM [inhibitor, full curve]
CC(=O)Nc1ccc(C2Sc3ccccc3NC3=C2C(=O)c2ccccc23)cc1 (centres undefined)	active: 12.6 µM
Cc1csc(C(C#N)C(=O)c2cc3ccccc3o2)n1 (centres undefined)	inconclusive: 56.2 µM [inhibitor, partial curve]
O=C(c1ccccc1F)N1CCN(c2ccccc2F)CC1	inactive
CN1CCN(CCOc2ccc(Cc3ccccc3)cc2)CC1	inconclusive: 79.4 µM [inhibitor, partial curve]
COc1ccc(N2CCN(Cc3cc(=O)oc4ccc5ccccc5c34)CC2)cc1	inconclusive: 25.1 µM [inhibitor, full curve]
COc1ccc2c(c1)[nH]c1c(N3CCN(Cc4ccc5c(c4)OCO5)CC3)ncnc12	inconclusive: 50.1 µM [inhibitor, partial curve]
Cc1cc(-c2n[nH]c(=S)n2Cc2ccccc2)cs1	active: 17.8 µM
C=CC#CC[N+]1(CC#Cc2ccccc2)CCOCC1	active: 39.8 µM
O=C(CSc1cn[nH]n1)Nc1ccccc1C(=O)O	active: 79.4 µM
CCOC(=O)C1C(=O)C(C(C)=O)C(=O)CC1CC(C)SCC (centres undefined)	active: 89.1 µM
CC(=O)NCC(=O)OCN1C(=O)c2ccccc2C1=O	inconclusive: 11.2 µM [inhibitor, partial curve]
O=C(Cn1cnc([N+](=O)[O-])n1)c1ccc(O)c(O)c1	inconclusive: 3.98 µM [inhibitor, full curve, poor fit]
CCOc1ccc(NS(=O)(=O)c2ccc3[nH]cc(C(=O)N(C)Cc4ccccc4)c(=O)c3c2)cc1	inactive
CN1CCN(c2nc(N3CCN(c4ccccc4)CC3)ncc2F)CC1	inconclusive: 22.4 µM [inhibitor, full curve]

SMILES	Potency
COC(=O)C1=C(N)N(c2ccccc2F)C2=C(C(=O)CC(C)(C)C2)C1c1ccc(OC)c(OC)c1 (centres undefined)	inconclusive: 89.1 µM [inhibitor, single point]
Cc1ccc(SCc2nc(-c3ccccc3)no2)cc1	inactive
Cc1ccccc1S(=O)(=O)Cc1ccc(C(=O)NC2CCCCC2)o1	inconclusive: 22.4 µM [inhibitor, full curve, poor fit]
O=[N+]([O-])c1ccc(O)c(C(C#Cc2ccccc2)N2CCOCC2)c1 (centres undefined)	inconclusive: 56.2 µM [inhibitor, partial curve]
O=C(c1c[nH]c(C(=O)C(Cl)(Cl)Cl)c1)c1c(F)cccc1F	active: 22.4 µM
O=C1C(Nc2ccc(O)cc2)=C/C(=N/S(=O)(=O)c2cccs2)c2ccccc21	active: 20 µM
Cc1nnc(SCc2ccc(Cl)cc2)c2cc3occc3n12	inconclusive: 31.6 µM [inhibitor, partial curve]
Cc1ccc(CNC(=O)c2ccc3c(=O)[nH]c4c(C(=O)NCC5CCCO5)sc(=S)n4c3c2)cc1 (centres undefined)	inconclusive: 56.2 µM [inhibitor, partial curve]
O=C(COc1ccccc1)Nc1cc(Cl)ccc1Cl	inactive
CCOC(=O)C/C(=N\Nc1ncnc2ccccc12)c1ccccc1	inconclusive: 56.2 µM [inhibitor, partial curve]
COc1ccc([N+](=O)[O-])cc1CSc1ccccn1	inactive
OC(COc1ccccc1)CN1CCC(Cc2ccccc2)CC1 (centres undefined)	inactive
COc1ccc(S(N)(=O)=O)cc1C(=O)N(C)CC(=O)Nc1ccc(N2CCOCC2)cc1	inactive
CCOC(=O)C1(C)Oc2ccccc2C(c2ccc(OC)cc2)=C1C(=O)OC (centres undefined)	inactive
CCC(=O)NCCC(c1ccco1)c1ccccc1OC (centres undefined)	inactive
C[n+]1ccccc1/C=C1\Sc2ccccc2N1CCO	inconclusive: 28.2 µM [inhibitor, single point]
O=C(Cc1ccccc1)NCC(=O)Nc1cc(Cl)ccc1Cl	inconclusive: 35.5 µM [inhibitor, single point]
Cc1ccc(C(=O)n2nc(C)c(S(=O)(=O)N3CCOCC3)c2C)cc1	inactive
O=C(c1ccccc1)c1ccc(OCC(O)CNCc2ccc(F)cc2)cc1 (centres undefined)	active: 5.01 µM
COc1ccc(-c2nc(CN3CCN(Cc4cccc(Cl)c4)CC3)c(C)o2)cc1	inconclusive: 44.7 µM [inhibitor, partial curve]
CN=C1N[C@H](c2ccccc2)N(c2ccccc2)S1	active: 25.1 µM
CCOc1ccc(NC(=O)CSc2nnc(-c3ccccc3Cl)n2Cc2ccco2)cc1	inconclusive: 50.1 µM [inhibitor, partial curve]
Cc1nnc(SCC2=C(C(=O)O)N3C(=O)C(NC(=O)C(C)n4nc(C(F)(F)F)cc4C)C3SC2)s1 (centres undefined)	active: 63.1 µM
CCn1c(SCc2nc3sc(C(=O)O)c(C)c3c(=O)[nH]2)nc2ccccc21	active: 39.8 µM
